According to ChEMBL document CHEMBL4888484, “Replenishing the malaria drug discovery pipeline: Screening and hit evaluation of the MMV Hit Generation Library 1 (HGL1) against asexual blood stage Plasmodium falciparum ,using a nano luciferase reporter read-out” (2022):
Hit rate of the full screen: of about 150,000 compounds, about 540 (0.36%) showed an effect of 50% or more. The list shows a part of the results.

These compounds were tested on Plasmodium falciparum (assay: Primary screen in NF54 nanoGlo assay, in single point, at 2uM, 72h; a lower Z score goes with more inhibition). Settings: timepoint 72 hour.
Type: functional, Erythrocyte

Row | SMILES | % Inhibition [%] | Z score
1 | Cc1nnc(-c2ccccc2NC(=O)CCC2CCC(C)O2)o1 (centres undefined) | 37 | -5.32
2 | Cc1ccc(CC(=O)N2CCC(N(C)c3ccc(C)nn3)CC2)cn1 | -1 | 0.13
3 | C=CCCC(=O)N[C@@H](C)c1nc(C)c(C(=O)O)s1 | 1 | -0.17
4 | COC[C@@H]1CN(c2ccncn2)C[C@H]1C(=O)N(C)Cc1ccco1 | -11 | 1.69
5 | Cn1ccc(C=C(CC(=O)O)c2nc3cc(Cl)ccc3s2)n1 | -14 | 2.75
6 | O=C(C[C@H]1CCOc2ccccc21)NCCC(=O)N1CCCCCC1 | 0 | 0.07
7 | Cc1ccc(C(=O)Nc2ccsc2-c2nnc(C3CC3)o2)cc1F | -9 | 1.44
8 | Cc1cc(C(=O)Nc2ccnn2[C@H]2CCCc3ccccc32)c(C)o1 | -8 | 0.82
9 | Cc1ccc(-c2cc([C@H]3CCN(Cc4ccoc4)C3)ccn2)c2cccnc12 | -5 | 1
10 | CC(C)(C)c1ccc([C@@]2(C)NC(=O)N(Cc3nncs3)C2=O)cc1 | 2 | -0.34
11 | C[C@@H](c1cncc(F)c1)N1C(=O)NC(CC(F)(F)F)C1=O (some centres undefined) | -4 | 0.76
12 | Cc1ccc(S(=O)(=O)C2CCCCC2N[C@@H]2C=C[C@H](CO)C2)cc1 (some centres undefined) | -8 | 0.98
13 | O=C1N(Cc2cc3ccccc3[nH]2)c2ccccc2C12OCCO2 | 1 | -0.09
14 | COC(=O)N(C)CCCC(=O)Nc1nn(C)c2cc(C)n(C)c(=O)c12 | -14 | 1.85
15 | NC(=NCc1ccco1)Nc1ccc(OC(F)(F)F)cc1 | -10 | 1.55
16 | CC(=O)c1sc(Nc2ccc3c(c2)OCO3)nc1C | -5 | 0.71
17 | CC(C)NC(=O)N[C@@H]1CC[C@H]2CCOc3ccccc3C(=O)N3CCN(Cc4ccc5c(c4)OCO5)C[C@H]3C(=O)NC[C@H]1O2 | -6 | 0.75
18 | O=C(c1n[nH]c2ccccc12)N1CCC[C@H](c2nccn2CC2CCC2)C1 | -15 | 2.08
19 | Cn1ccn2ncc(C(=O)N3CCn4nc(-c5nc6ccccc6[nH]5)cc4C3)c12 | -23 | 2.22
20 | CC(C)(O)CN1CCN(C(=O)C[C@@H]2OCCc3sccc32)CC1 | 5 | -0.85
21 | COc1cccc(CN2CCCCC23CC3)c1O[C@@H](C)C(=O)O | -11 | 1.41

Row | SMILES | % Inhibition [%] | Z score
22 | Cc1cnc(CN2CCC([C@@H](O)CCc3ccccc3)CC2)c(C)c1O | -3 | 0.5
23 | CC(C)c1nc(CN2C(=O)CNC2=O)n(Cc2c(F)cccc2Cl)n1 | 17 | -2.17
24 | CC(C)n1ccc(CN2CCN(C[C@H](O)COc3ccccc3)CC2)n1 | 8 | -0.91
25 | O=C(c1n[nH]c2c1CCCC2)N1CCc2nc[nH]c2C1 | -10 | 1.2
26 | COc1nc2c(cc1CNC(=O)CCC1CC1)C(=O)N(C1CCCC1)C2 | 5 | -0.72
27 | Cc1noc(C)c1S(=O)(=O)N1CCc2[nH]c3ccccc3c2C1 | -15 | 2.78
28 | Cc1ccnc(NC(=O)CNC(=O)C2CCCCC2)c1 | -1 | 0.13
29 | CC1CCC2=NN(c3nc4ccccc4s3)C(O)(C(F)(F)F)C2C1 (centres undefined) | -3 | 0.45
30 | O=C(CCC(=O)Nc1cccnc1)Nc1cccnc1 | -1 | 0.07
31 | CCc1nnc(Cn2cnc3ccccc3c2=O)o1 | -2 | 0.22
32 | CCOc1ccc(S(=O)(=O)N2CCC3(CC2)CN(C)C[C@@H]3COC)cc1 | 2 | -0.21
33 | CC[C@H]1CN(S(=O)(=O)c2ccccc2)CC[C@H]1CC(=O)N(C)CCC#N | -8 | 1.23
34 | CC(C)CC(C)(C)CNS(=O)(=O)Cc1ccon1 | -12 | 1.65
35 | Cc1ccc(N(C)c2nc(-c3ccc(F)cc3)ncc2C(=O)N(C)C2CCCCC2)cc1 | -26 | 2.75
36 | CCCC(=O)NCCn1nc(-c2ccc(F)cc2)n(C2CC2)c1=O | -7 | 1.35
37 | CC1(C)CC1(NC(=O)NC1CC2CCCCN2C1=O)c1ccccc1 (centres undefined) | 15 | -1.85
38 | CC1(C)[C@@H](O)[C@H]2CCCN(C(=O)c3cc(C(F)F)ncn3)[C@H]21 | -5 | 0.54
39 | CCOc1cc(N2CC[C@H](C(N)=O)C2)ncn1 | -1 | 0.08
40 | Cc1ccc(OCc2ccc(C(=O)N(CCC#N)CC3CCC3)o2)c(C)c1 | 5 | -0.49
41 | COc1ccc([C@H]2C[C@H](NC(=O)NCc3cccnc3C)C2)cc1F | -12 | 1.22
42 | CCc1nnc(CN(CC)C(=O)c2cc(CC(C)C)no2)o1 | -7 | 1.02
